In paper PMC12820563, “FoxP3 forms a head-to-head dimer in vivo and stabilizes its multimerization on adjacent microsatellites”:
The other results are listed elsewhere or left out.

target: T1, MBP-FoxP1dN (Mus musculus, UniProt P58462 326-579); experiment: PD-seq (MBP pull-down with sequencing); 20 mM Tris-HCl pH 7.5, 100 mM NaCl, 1.5 mM MgCl2, 0.4 uM protein, 0.1 uM dsDNA library, 30 min, room temperature, amylose pull-down; high values mean tight binding; settings: protein: recombinant; tags: His6-MBP; chain copies: 2; dsDNA, one strand shown
T1 sequence: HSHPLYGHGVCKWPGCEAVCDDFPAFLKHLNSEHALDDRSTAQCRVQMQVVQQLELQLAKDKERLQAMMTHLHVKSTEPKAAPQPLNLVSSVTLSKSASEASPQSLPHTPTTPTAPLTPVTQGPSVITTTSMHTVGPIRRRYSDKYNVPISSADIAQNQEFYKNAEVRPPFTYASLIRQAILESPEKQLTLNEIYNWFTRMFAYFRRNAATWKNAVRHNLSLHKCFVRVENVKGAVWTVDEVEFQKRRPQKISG
Summary of the method: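 In Tris pH 7.5 buffer with NaCl and MgCl2, 0.4 µM His6-MBP-tagged mouse FoxP3 or FoxP1 fragment lacking the N-terminus, from E. coli, met 0.1 µM Klenow-filled double-stranded degenerate DNA library for 30 min at room temperature. Three washes on amylose resin followed capture of the complexes, then proteinase K release of DNA, PCR barcoding and Illumina sequencing. Binding is taken as pooled-replicate reads-per-million enrichment of pull-down relative to input.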

Sequence | binding signal
GATGATTGTTCTCCCAGCTGATGAATTAAACTGCTCGAGTAAACAAATTTTCCTAATCTTTCTGTTCAAGCGCCATCTAC | 0.867 RPM ratio (pull-down/input)
GATGATTGTTCTCCCAGCTGATGAATTTAAAGTTTCGAGTAAACAAATTTTCCTAATCTTTCTGTTCAAGCGCCATCTAC | 0.904 RPM ratio (pull-down/input)
GATGATTGTTCTCCCAGCTGATGAATTTAGGAAGTCGAGTAAACAAATTTTCCTAATCTTTCTGTTCAAGCGCCATCTAC | 0.879 RPM ratio (pull-down/input)
GATGATTGTTCTCCCAGCTGATGAATTCTACCGTTCGAGTAAACAAATTTTCCTAATCTTTCTGTTCAAGCGCCATCTAC | 0.873 RPM ratio (pull-down/input)
GATGATTGTTCTCCCAGCTGATGAATTATATATCTCGAGTAAACAAATTTTCCTAATCTTTCTGTTCAAGCGCCATCTAC | 1.05 RPM ratio (pull-down/input)
GATGATTGTTCTCCCAGCTGATGAATTACGACTTTCGAGTAAACAAATTTTCCTAATCTTTCTGTTCAAGCGCCATCTAC | 1.09 RPM ratio (pull-down/input)
GATGATTGTTCTCCCAGCTGATGAATTAACACTTTCGAGTAAACAAATTTTCCTAATCTTTCTGTTCAAGCGCCATCTAC | 1.06 RPM ratio (pull-down/input)
GATGATTGTTCTCCCAGCTGATGAATTCCGCTAATCGAGTAAACAAATTTTCCTAATCTTTCTGTTCAAGCGCCATCTAC | 0.88 RPM ratio (pull-down/input)
GATGATTGTTCTCCCAGCTGATGAATTCAAGGAGTCGAGTAAACAAATTTTCCTAATCTTTCTGTTCAAGCGCCATCTAC | 0.767 RPM ratio (pull-down/input)
GATGATTGTTCTCCCAGCTGATGAATTCCTCTCGTCGAGTAAACAAATTTTCCTAATCTTTCTGTTCAAGCGCCATCTAC | 0.81 RPM ratio (pull-down/input)
GATGATTGTTCTCCCAGCTGATGAATTTCAGGTCTCGAGTAAACAAATTTTCCTAATCTTTCTGTTCAAGCGCCATCTAC | 0.752 RPM ratio (pull-down/input)
GATGATTGTTCTCCCAGCTGATGAATTAATGATGTCGAGTAAACAAATTTTCCTAATCTTTCTGTTCAAGCGCCATCTAC | 1.2 RPM ratio (pull-down/input)
GATGATTGTTCTCCCAGCTGATGAATTTGTCGTGTCGAGTAAACAAATTTTCCTAATCTTTCTGTTCAAGCGCCATCTAC | 1.16 RPM ratio (pull-down/input)
GATGATTGTTCTCCCAGCTGATGAATTTCGATTTTCGAGTAAACAAATTTTCCTAATCTTTCTGTTCAAGCGCCATCTAC | 1.02 RPM ratio (pull-down/input)
GATGATTGTTCTCCCAGCTGATGAATTGTCTGCCTCGAGTAAACAAATTTTCCTAATCTTTCTGTTCAAGCGCCATCTAC | 0.999 RPM ratio (pull-down/input)
GATGATTGTTCTCCCAGCTGATGAATTGCTGGTATCGAGTAAACAAATTTTCCTAATCTTTCTGTTCAAGCGCCATCTAC | 1.02 RPM ratio (pull-down/input)

Sequence | binding signal
GATGATTGTTCTCCCAGCTGATGAATTACCAGCTTCGAGTAAACAAATTTTCCTAATCTTTCTGTTCAAGCGCCATCTAC | 0.956 RPM ratio (pull-down/input)
GATGATTGTTCTCCCAGCTGATGAATTCGGTGGCTCGAGTAAACAAATTTTCCTAATCTTTCTGTTCAAGCGCCATCTAC | 0.824 RPM ratio (pull-down/input)
GATGATTGTTCTCCCAGCTGATGAATTGCCGTGCTCGAGTAAACAAATTTTCCTAATCTTTCTGTTCAAGCGCCATCTAC | 0.904 RPM ratio (pull-down/input)
GATGATTGTTCTCCCAGCTGATGAATTCTGGAAGTCGAGTAAACAAATTTTCCTAATCTTTCTGTTCAAGCGCCATCTAC | 0.804 RPM ratio (pull-down/input)
GATGATTGTTCTCCCAGCTGATGAATTGACAGTCTCGAGTAAACAAATTTTCCTAATCTTTCTGTTCAAGCGCCATCTAC | 1.1 RPM ratio (pull-down/input)
GATGATTGTTCTCCCAGCTGATGAATTCAATTTTTCGAGTAAACAAATTTTCCTAATCTTTCTGTTCAAGCGCCATCTAC | 0.905 RPM ratio (pull-down/input)
GATGATTGTTCTCCCAGCTGATGAATTGTATCGCTCGAGTAAACAAATTTTCCTAATCTTTCTGTTCAAGCGCCATCTAC | 1.1 RPM ratio (pull-down/input)
GATGATTGTTCTCCCAGCTGATGAATTCACCTTCTCGAGTAAACAAATTTTCCTAATCTTTCTGTTCAAGCGCCATCTAC | 0.88 RPM ratio (pull-down/input)
GATGATTGTTCTCCCAGCTGATGAATTAGGCCATTCGAGTAAACAAATTTTCCTAATCTTTCTGTTCAAGCGCCATCTAC | 0.929 RPM ratio (pull-down/input)
GATGATTGTTCTCCCAGCTGATGAATTGGGTTTTTCGAGTAAACAAATTTTCCTAATCTTTCTGTTCAAGCGCCATCTAC | 0.971 RPM ratio (pull-down/input)
GATGATTGTTCTCCCAGCTGATGAATTACCTCACTCGAGTAAACAAATTTTCCTAATCTTTCTGTTCAAGCGCCATCTAC | 0.949 RPM ratio (pull-down/input)
GATGATTGTTCTCCCAGCTGATGAATTAATCTTATCGAGTAAACAAATTTTCCTAATCTTTCTGTTCAAGCGCCATCTAC | 0.932 RPM ratio (pull-down/input)
GATGATTGTTCTCCCAGCTGATGAATTGTAAGCTTCGAGTAAACAAATTTTCCTAATCTTTCTGTTCAAGCGCCATCTAC | 1.07 RPM ratio (pull-down/input)
GATGATTGTTCTCCCAGCTGATGAATTCCGGAAATCGAGTAAACAAATTTTCCTAATCTTTCTGTTCAAGCGCCATCTAC | 0.929 RPM ratio (pull-down/input)
GATGATTGTTCTCCCAGCTGATGAATTCGGGTCCTCGAGTAAACAAATTTTCCTAATCTTTCTGTTCAAGCGCCATCTAC | 0.771 RPM ratio (pull-down/input)
